Some of the results follow.
How the values were obtained:
Experiment in all cases: glycan array binding signal (z-score within array); higher = stronger binding
Settings in all cases: glycan notation: IUPAC condensed, linker removed
[1] = biological target: Fuc(a1-3)[Gal3S(b1-4)]GlcNAc
In short: (§1)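 Glycan array data came from 3228 arrays in the Consortium for Functional Glycomics database, and only arrays with an available protein sequence were kept. Glycan names were put into IUPAC-condensed notation, and columns mapping to the same glycan were averaged. The binding signal is a within-array Z-score, averaged across arrays of one protein sequence run at different concentrations or buffers and across linkers. A negative Z-score can be read as non-binding.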

[2] = biological target: Fuc(a1-3)[Gal3S(b1-4)]GlcNAc6S
In short: as §1

[3] = biological target: Fuc(a1-3)[GalNAc(b1-4)]GlcNAc
In short: as §1

[4] = biological target: Fuc(a1-3)[GalNAc(b1-4)]GlcNAc6S
In short: as §1

Fuc(a1-4)GlcNAc = biological target: Fuc(a1-4)GlcNAc
In short: as §1

Fuc(b1-3)GlcNAc = biological target: Fuc(b1-3)GlcNAc
In short: as §1

Gal(a1-2)Gal = biological target: Gal(a1-2)Gal
In short: as §1

Gal(a1-3)Gal = biological target: Gal(a1-3)Gal
In short: as §1

Gal(a1-3)Gal(b1-3)GlcNAc = biological target: Gal(a1-3)Gal(b1-3)GlcNAc
In short: as §1

[5] = biological target: Gal(a1-3)Gal(b1-3)GlcNAc(b1-2)Man
In short: as §1

[6] = biological target: Gal(a1-3)Gal(b1-3)GlcNAc(b1-2)Man(a1-3)[Gal(a1-3)Gal(b1-3)GlcNAc(b1-2)Man(a1-6)]Man(b1-4)GlcNAc(b1-4)GlcNAc
In short: as §1

[7] = biological target: Gal(a1-3)Gal(b1-3)GlcNAc(b1-3)GalNAc
In short: as §1

[8] = biological target: Gal(a1-3)Gal(b1-3)GlcNAc(b1-6)GalNAc
In short: as §1

[9] = biological target: Gal(a1-3)Gal(b1-3)[Fuc(a1-4)]GlcNAc(b1-2)Man(a1-3)[Gal(a1-3)Gal(b1-3)[Fuc(a1-4)]GlcNAc(b1-2)Man(a1-6)]Man(b1-4)GlcNAc(b1-4)GlcNAc
In short: as §1

Gal(a1-3)Gal(b1-4)Glc = biological target: Gal(a1-3)Gal(b1-4)Glc
In short: as §1

Gal(a1-3)Gal(b1-4)GlcNAc = biological target: Gal(a1-3)Gal(b1-4)GlcNAc
In short: as §1

[10] = biological target: Gal(a1-3)Gal(b1-4)GlcNAc(b1-2)Man
In short: as §1

[11] = biological target: Gal(a1-3)Gal(b1-4)GlcNAc(b1-2)Man(a1-3)[Gal(a1-3)Gal(b1-4)GlcNAc(b1-2)Man(a1-6)]Man(b1-4)GlcNAc(b1-4)GlcNAc
In short: as §1

[12] = biological target: Gal(a1-3)Gal(b1-4)GlcNAc(b1-3)GalNAc
In short: as §1

[13] = biological target: Gal(a1-3)Gal(b1-4)GlcNAc(b1-6)GalNAc
In short: as §1

[14] = biological target: Gal(a1-3)Gal(b1-4)[Fuc(a1-3)]GlcNAc
In short: as §1

[15] = biological target: Gal(a1-3)Gal(b1-4)[Fuc(a1-3)]GlcNAc(b1-2)Man(a1-3)[Gal(a1-3)Gal(b1-4)[Fuc(a1-3)]GlcNAc(b1-2)Man(a1-6)]Man(b1-4)GlcNAc(b1-4)GlcNAc
In short: as §1

Gal(a1-3)GalNAc = biological target: Gal(a1-3)GalNAc
In short: as §1

[16] = biological target: Gal(a1-3)[Gal(a1-4)]Gal(b1-4)GlcNAc
In short: as §1

[17] = biological target: Gal(a1-4)Gal(b1-3)GlcNAc(b1-2)Man(a1-3)[Gal(a1-4)Gal(b1-3)GlcNAc(b1-2)Man(a1-6)]Man(b1-4)GlcNAc(b1-4)GlcNAc
In short: as §1

Gal(a1-4)Gal(b1-4)Glc = biological target: Gal(a1-4)Gal(b1-4)Glc
In short: as §1

Gal(a1-4)Gal(b1-4)GlcNAc = biological target: Gal(a1-4)Gal(b1-4)GlcNAc
In short: as §1

[18] = biological target: Gal(a1-4)Gal(b1-4)GlcNAc(b1-2)Man(a1-3)[Gal(a1-4)Gal(b1-4)GlcNAc(b1-2)Man(a1-6)]Man(b1-4)GlcNAc(b1-4)GlcNAc
In short: as §1

[19] = biological target: Gal(a1-4)Gal(b1-4)GlcNAc(b1-3)Gal(b1-4)Glc
In short: as §1

Gal(a1-4)GlcNAc = biological target: Gal(a1-4)GlcNAc
In short: as §1

Gal(a1-6)Glc = biological target: Gal(a1-6)Glc
In short: as §1

Gal(b1-2)Gal = biological target: Gal(b1-2)Gal
In short: as §1

Gal(b1-3)Gal = biological target: Gal(b1-3)Gal
In short: as §1

Gal(b1-3)Gal(b1-4)GlcNAc = biological target: Gal(b1-3)Gal(b1-4)GlcNAc
In short: as §1

[20] = biological target: Gal(b1-3)Gal(b1-4)GlcNAc(b1-2)Man(a1-3)[Gal(b1-3)Gal(b1-4)GlcNAc(b1-2)Man(a1-6)]Man(b1-4)GlcNAc(b1-4)GlcNAc
In short: as §1

Gal(b1-3)GalNAc = biological target: Gal(b1-3)GalNAc
In short: as §1

[21] = biological target: Gal(b1-3)GalNAc(a1-3)[Fuc(a1-2)]Gal(b1-4)Glc
In short: as §1

[22] = biological target: Gal(b1-3)GalNAc(a1-3)[Fuc(a1-2)]Gal(b1-4)GlcNAc
In short: as §1

B1: PpFlo2 (Pichia pastoris) (protein)
chain: MGSSHHHHHHSSGLVPRGSHMDDSGNGDNSDTAYGCDITTNAVDGFDATIYQYNANDLRLIRDPTFMSTGYLGRNVLNKISGVTVPGFNIWNPSSRTATVYGVKNVNYYNMVLELKGYFKADVSGDYKLTLSHIDDSSMLFFGKETAFKCCDAGSIPLNEAPTDYSLFTIKPSNQVNSEVISATQYLEAGKYYPVRIVFVNALERARFDFKLTIPSGAVLDDFQNYIYQFGDLDENSCHE
B1 was tested, and the “glycan array binding signal (z-score)” value [1] was -0.313, the “glycan array binding signal (z-score)” value [2] was -0.297 and the “glycan array binding signal (z-score)” value [3] was -0.293. For the same binder, the “glycan array binding signal (z-score)” value [4] was -0.275, the “glycan array binding signal (z-score)” value (Fuc(a1-4)GlcNAc) was -0.285 and the “glycan array binding signal (z-score)” value (Fuc(b1-3)GlcNAc) was -0.287. The “glycan array binding signal (z-score)” value (Gal(a1-2)Gal) was -0.301, the “glycan array binding signal (z-score)” value (Gal(a1-3)Gal) was -0.302 and the “glycan array binding signal (z-score)” value (Gal(a1-3)Gal(b1-3)GlcNAc) was -0.297. For the same binder, the “glycan array binding signal (z-score)” value [5] was -0.274, the “glycan array binding signal (z-score)” value [6] was -0.295 and the “glycan array binding signal (z-score)” value [7] was -0.3. The “glycan array binding signal (z-score)” value [8] was -0.271, the “glycan array binding signal (z-score)” value [9] was -0.293 and the “glycan array binding signal (z-score)” value (Gal(a1-3)Gal(b1-4)Glc) was -0.3. The “glycan array binding signal (z-score)” value (Gal(a1-3)Gal(b1-4)GlcNAc) was -0.302, the “glycan array binding signal (z-score)” value [10] was -0.27 and the “glycan array binding signal (z-score)” value [11] was -0.213. For the same binder, the “glycan array binding signal (z-score)” value [12] was -0.274, the “glycan array binding signal (z-score)” value [13] was -0.269 and the “glycan array binding signal (z-score)” value [14] was -0.302. For the same binder, the “glycan array binding signal (z-score)” value [15] was -0.276, the “glycan array binding signal (z-score)” value (Gal(a1-3)GalNAc) was -0.298 and the “glycan array binding signal (z-score)” value [16] was -0.291. For the same binder, the “glycan array binding signal (z-score)” value [17] was -0.266, the “glycan array binding signal (z-score)” value (Gal(a1-4)Gal(b1-4)Glc) was -0.296 and the “glycan array binding signal (z-score)” value (Gal(a1-4)Gal(b1-4)GlcNAc) was -0.275. For the same binder, the “glycan array binding signal (z-score)” value [18] was -0.23, the “glycan array binding signal (z-score)” value [19] was -0.265 and the “glycan array binding signal (z-score)” value (Gal(a1-4)GlcNAc) was -0.264. For the same binder, the “glycan array binding signal (z-score)” value (Gal(a1-6)Glc) was -0.301, the “glycan array binding signal (z-score)” value (Gal(b1-2)Gal) was -0.298 and the “glycan array binding signal (z-score)” value (Gal(b1-3)Gal) was -0.296. For the same binder, the “glycan array binding signal (z-score)” value (Gal(b1-3)Gal(b1-4)GlcNAc) was -0.3, the “glycan array binding signal (z-score)” value [20] was -0.061 and the “glycan array binding signal (z-score)” value (Gal(b1-3)GalNAc) was -0.296. For the same binder, the “glycan array binding signal (z-score)” value [21] was -0.3 and the “glycan array binding signal (z-score)” value [22] was -0.298.
